Reference: the supplement of paper PMC3334620
The full ranking holds about 33,000 sequences; the median of “E-score (-0.5 to 0.5)” is about -0.041, and the highest 2% start at about 0.37. Some of the results follow.

biological target: T1, Ecm22 (UniProt Q05958); assay: PBM E-score (8-mer binding enrichment) (E-score (-0.5 to 0.5)); higher = stronger / more preferred TF binding; most listed sequences are background and not binding sites; conditions: protein concentration: 200 nM; construct: GST-full length
T1 sequence: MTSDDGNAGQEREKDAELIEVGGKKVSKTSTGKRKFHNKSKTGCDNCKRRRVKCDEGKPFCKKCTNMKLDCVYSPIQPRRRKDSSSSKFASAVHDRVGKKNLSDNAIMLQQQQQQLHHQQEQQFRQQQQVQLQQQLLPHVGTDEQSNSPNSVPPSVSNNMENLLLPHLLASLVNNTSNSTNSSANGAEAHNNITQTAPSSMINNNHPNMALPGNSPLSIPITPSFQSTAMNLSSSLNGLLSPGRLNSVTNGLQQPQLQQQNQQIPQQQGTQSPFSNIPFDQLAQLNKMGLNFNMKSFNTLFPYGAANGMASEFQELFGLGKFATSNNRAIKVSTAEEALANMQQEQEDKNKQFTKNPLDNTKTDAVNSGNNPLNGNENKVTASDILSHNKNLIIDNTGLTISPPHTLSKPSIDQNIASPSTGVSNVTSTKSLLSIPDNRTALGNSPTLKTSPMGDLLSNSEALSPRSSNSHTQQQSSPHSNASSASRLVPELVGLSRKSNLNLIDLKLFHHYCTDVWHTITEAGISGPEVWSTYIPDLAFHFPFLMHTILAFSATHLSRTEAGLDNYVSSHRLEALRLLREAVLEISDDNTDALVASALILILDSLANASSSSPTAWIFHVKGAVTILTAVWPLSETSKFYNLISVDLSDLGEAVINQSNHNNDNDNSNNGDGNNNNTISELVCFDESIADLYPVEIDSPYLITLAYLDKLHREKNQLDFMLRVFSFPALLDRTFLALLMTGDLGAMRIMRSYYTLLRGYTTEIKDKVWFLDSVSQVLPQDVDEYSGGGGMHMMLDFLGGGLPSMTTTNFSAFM
Experimental: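 Universal 'all 10-mer' protein binding microarrays (Agilent AMADID 015681) probed with GST-tagged S. cerevisiae TFs (full-length or DBD) made by in vitro transcription/translation (PURExpress), about 100-200 nM. Bound TF was detected with fluorescent anti-GST. Each ungapped 8-mer (which stands for itself and its reverse complement) is scored by the PBM enrichment score (E-score), a modified Wilcoxon-Mann-Whitney statistic from -0.5 to +0.5, computed with the Universal PBM Analysis Suite. Scale: above 0.35 generally sequence-specific binding.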

Sequence	PBM E-score
AAAATGGC	-0.0688
TCTTACCA	0.061
TGCATTAA	-0.0505
CCGGCAAC	-0.0588
AGGGACGA	-0.0321
CAAGTAGA	-0.184
CTAGGAAA	-0.209
CCGTCCCG	-0.0784
ATGACTGG	-0.134
CCTTATGC	-0.0883
GAGCTATC	0.00129
GCGGCGGA	0.111
CTTGCATA	-0.118
AGCAGATA	0.0376
ATTTTGAA	0.059
GACTCAAC	-0.0322
ATTTACGG	0.31
GATACAAC	-0.0873
CCACTAAC	-0.137
TGCATGAA	0.0637
CACCGTCG	0.0865
ATTTAGCC	0.0231

Sequence	PBM E-score
CCATTTAC	-0.043
ACCACTAT	-0.0396
AAAGAGGT	-0.244
ACTGAGGA	0.0578
AAGGGATT	-0.119
ACCCAGCG	-0.184
AGGCCGAA	0.0838
GACATTAC	-0.0488
CACATCCC	-0.181
GGCGATAA	-0.103
ATGATGAA	-0.00452
CATAGTGG	-0.181
AGAAGCAG	-0.203
AGCCGTGG	-0.24
CTCTGGTA	-0.113
GACGAGGA	0.175
ACAAGGTG	-0.0914
ACCAACTG	-0.122
TATCGCGA	0.25
AGATCGTC	-0.0821
AAATTATT	-0.156
CCCGAATA	0.0892

Sequence	PBM E-score
AAGTAGAC	0.0636
ACACAGGG	-0.135
CCAATTGC	-0.241
GGGCTTGA	-0.261
TGCTGTAA	0.0757
AACCTGAA	-0.2
CATGGCAA	-0.147
GCCGAACA	0.135
CCAACTAG	-0.172
TTCAACAA	0.00651
ATATGGAT	0.133
ACCTTGCT	-0.183
ACAGCTAG	-0.195
ATCCACTG	-0.192
TAGCGGAA	0.0753
CGGCACGC	0.161
GGGGATCA	-0.16
AAAGTCCC	-0.187
ACTTCGGG	-0.0975
CAAAGCAC	-0.134
CTGTCTTC	-0.0637
GATAGAGC	0.0232

Sequence	PBM E-score
ACTTTACG	0.394
AAAGTTCA	-0.0813
TGCCAAAA	-0.209
GTATTAAC	0.26
CGTGGGAA	-0.0898
ACAGGTGC	-0.296
AGTGCCAG	-0.285
ACGTAGTA	0.16
ACGGGCGA	0.0901
ACTGATGG	-0.294
CAACAGCC	-0.0816
CCGGTACA	0.0868
CACGAAGA	0.226
ATGTCATC	-0.129
GGGGCGCA	-0.18
ACACGCTC	0.072
CAGACTCG	0.174
ATCTAGCC	-0.0568
ACATTGAA	0.0404
ACCTCAGC	0.0319
